In all, about 110,000 compounds went through this assay and about 230 (0.21%) showed an effect of 50% or more. Some of the results follow.
What follows are compounds tested against DPAP1 (Plasmodium falciparum, UniProt Q8IIJ9) (assay: primary screen, percent inhibition; read by cleavage of a fluorogenic dipeptide substrate; higher = more effect of the substance).
Parameters: species or system P. falciparum D10 trophozoite lysates; single well
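Note: 30 min substrate incubation versus DMSO and 10 µM JCP410 controls.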

Chain of DPAP1 (Q8IIJ9 whole entry, looked up): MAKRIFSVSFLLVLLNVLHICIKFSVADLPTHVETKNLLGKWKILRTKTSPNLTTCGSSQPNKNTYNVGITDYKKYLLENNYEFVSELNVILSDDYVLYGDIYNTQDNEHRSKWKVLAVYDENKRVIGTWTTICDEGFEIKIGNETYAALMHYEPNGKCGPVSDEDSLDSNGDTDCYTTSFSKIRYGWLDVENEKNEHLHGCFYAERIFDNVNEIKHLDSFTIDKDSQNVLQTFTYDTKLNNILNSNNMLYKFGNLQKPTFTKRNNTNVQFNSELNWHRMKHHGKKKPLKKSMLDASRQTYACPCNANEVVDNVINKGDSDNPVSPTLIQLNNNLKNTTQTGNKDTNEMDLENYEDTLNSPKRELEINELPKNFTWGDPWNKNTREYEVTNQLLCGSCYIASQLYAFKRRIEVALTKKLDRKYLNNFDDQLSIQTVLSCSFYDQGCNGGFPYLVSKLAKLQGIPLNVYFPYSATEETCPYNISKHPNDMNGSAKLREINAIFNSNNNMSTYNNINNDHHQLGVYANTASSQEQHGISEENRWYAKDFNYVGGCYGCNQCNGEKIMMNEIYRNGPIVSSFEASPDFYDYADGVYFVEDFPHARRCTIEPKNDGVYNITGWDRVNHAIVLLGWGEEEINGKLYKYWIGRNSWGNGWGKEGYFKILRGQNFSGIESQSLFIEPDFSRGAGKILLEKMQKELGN

SMILES	% Inhibition @ 10 uM [%]
C=Cc1ccc(Cn2c(C)c(CNCCc3ccc(OC)c(OC)c3)c(C(=O)O)c2C)cc1	8.86
Cc1cccc(OCCSc2nc(C)cc(O)n2)c1	1.7
OC(CN1CCOCC1)Cn1ccc2ccccc21 (stereo not shown)	-3.53
CCCNC(=O)c1cc(S(=O)(=O)N2CCCCC2)c[nH]1	-6.25
c1ccc(C2=C(c3ccccc3)N3CCN=C3S2)cc1	23.4
O=C(CCc1nnc2n(Cc3ccccc3Cl)c(=O)c3ccccc3n12)NCc1ccccn1	0.981
Cc1nn(C)c(Cl)c1/C=C/C(=O)N[C@@H](CC(C)C)C(=O)NCC#N	-3.14
O=C(Cn1ncc2c1-c1ccccc1OC2)Nc1cccnc1	-6.3
COc1ccc(OCc2nc(C#N)c(NC(C)c3ccccc3)o2)cc1 (stereo not shown)	-0.99
Cc1ccccc1/C=C1/SC(Nc2ccccc2O)=NC1=O	-5.7
CCCN1C/C(=C\c2ccc(OC)cc2)C(=O)/C(=C/c2ccc(OC)cc2)C1	23
Clc1ccc(-n2ncc3c(N4CCN(Cc5ccccc5)CC4)ncnc32)cc1	8.36
CC(C)(C)c1ccc(OCC(=O)Nc2nccs2)cc1	0.709
Oc1ccc(Nc2nc(-c3ccncc3)cs2)cc1	0.0538
O=C(NC1CCCC1)c1cccc(S(=O)(=O)NC2CCCC2)c1	-3.72
CC(C(=O)c1ccccc1)C1(O)C(=O)N(C)c2ccccc21 (stereo not shown)	-1.98
O=C(c1ccc(-n2ccc3ccccc32)s1)N1CCC(C(=O)N2CCC3(CC2)OCCO3)CC1	4.27
COc1ccc(OCC(O)CNC2CC(C)(C)NC(C)(C)C2)cc1 (stereo not shown)	-2.75
CCOC(=O)N1CCC(NC(=O)c2ccc(CNS(=O)(=O)c3ccc(F)cc3)cc2)CC1	-0.256
COc1ccc(-c2cc(O)oc3nnc(C)c2-3)cc1	0.503
COc1ccccc1Nc1nc(Cl)nc(C)c1[N+](=O)[O-]	-4.21
COc1ccc(C2c3c(oc4ccc(C)cc4c3=O)C(=O)N2Cc2ccc3c(c2)OCO3)cc1OC (stereo not shown)	-3.13
CCCCn1c(SCc2nc(N)nc(N3CCOCC3)n2)nc2c1c(=O)n(C)c(=O)n2C	11.2
COc1ccc(N(CC(=O)N2CCOCC2)S(=O)(=O)c2ccc(C)cc2)c(OC)c1	-1.2
Oc1cccc(CN2CCSCC2)c1	-0.192
Cc1[nH]cnc1CN1CCc2ccccc2C1	1.74
CCn1ncc(Br)c1C(=O)Nc1sc2c(c1C(N)=O)CCCC2	-6.79
Cc1ccc2c(Sc3ccccc3)c(C(=O)O)[nH]c2c1	3.24

Reference: paper PMC6919601, “Identification of Plasmodium dipeptidyl aminopeptidase allosteric inhibitors by high throughput screening” (PLoS ONE, 2019)
